# Results taken from paper PMC4336329 (PLoS ONE, 2015).
# About 2,200 (0.71%) of roughly 310,000 compounds showed an effect of 50% or more. Effects have a minus sign here. This is one part of the list.
# Target: human ether-à-go-go-related gene (hERG) potassium channel (human, UniProt Q12809)
# Assay: primary screen, population patch clamp on CHO cells stably expressing hERG
# human ether-à-go-go-related gene (hERG) potassium channel, sequence (Q12809 whole entry, looked up): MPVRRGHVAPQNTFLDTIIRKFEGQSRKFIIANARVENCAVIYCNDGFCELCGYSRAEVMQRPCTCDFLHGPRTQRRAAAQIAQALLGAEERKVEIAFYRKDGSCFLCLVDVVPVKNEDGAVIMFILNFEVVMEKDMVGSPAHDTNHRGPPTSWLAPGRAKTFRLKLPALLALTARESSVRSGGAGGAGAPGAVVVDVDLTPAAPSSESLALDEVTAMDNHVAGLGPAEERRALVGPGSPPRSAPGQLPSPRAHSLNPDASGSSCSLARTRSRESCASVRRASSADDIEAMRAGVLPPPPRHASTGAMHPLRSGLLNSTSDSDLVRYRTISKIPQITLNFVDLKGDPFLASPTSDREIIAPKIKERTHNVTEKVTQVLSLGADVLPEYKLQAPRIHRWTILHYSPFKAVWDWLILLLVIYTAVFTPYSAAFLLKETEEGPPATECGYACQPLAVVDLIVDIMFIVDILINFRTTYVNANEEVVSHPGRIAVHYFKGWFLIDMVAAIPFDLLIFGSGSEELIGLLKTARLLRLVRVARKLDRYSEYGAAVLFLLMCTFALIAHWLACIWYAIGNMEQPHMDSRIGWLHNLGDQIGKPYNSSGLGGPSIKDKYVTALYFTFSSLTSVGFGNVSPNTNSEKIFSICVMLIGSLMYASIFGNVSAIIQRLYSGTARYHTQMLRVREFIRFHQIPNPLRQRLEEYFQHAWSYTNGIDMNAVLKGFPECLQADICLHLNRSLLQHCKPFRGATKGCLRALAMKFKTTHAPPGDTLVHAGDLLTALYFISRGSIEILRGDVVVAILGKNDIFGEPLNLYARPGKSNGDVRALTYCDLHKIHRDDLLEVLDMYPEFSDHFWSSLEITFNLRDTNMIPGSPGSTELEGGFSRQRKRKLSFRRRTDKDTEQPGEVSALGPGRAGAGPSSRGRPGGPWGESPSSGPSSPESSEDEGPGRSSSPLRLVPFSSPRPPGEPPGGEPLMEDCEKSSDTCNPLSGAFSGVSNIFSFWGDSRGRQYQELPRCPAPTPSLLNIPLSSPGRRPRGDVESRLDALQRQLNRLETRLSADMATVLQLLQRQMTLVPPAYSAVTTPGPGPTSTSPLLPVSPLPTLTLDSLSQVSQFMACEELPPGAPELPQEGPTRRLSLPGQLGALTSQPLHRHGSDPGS
row,SMILES,"hERG current change (%, negative = inhibition) at 1uM"
1,CC(CN(C)Cc1ccccc1)OC(=O)C1COc2ccccc2O1.Cl (stereo not shown),16.1%
2,CCOC(=O)c1nc(N2CCN(C(=O)OCC)CC2)c2c3c(sc2n1)CCCC3,-6.61%
3,Cc1ccccc1NC(=O)C1CCCN1S(=O)(=O)c1ccc2c(c1)n(C)c(=O)c(=O)n2C (stereo not shown),3.98%
4,COC(=O)Cn1c(C)nc(=O)c(-c2ccccc2)c1C,12.5%
5,[N-]=[N+]=CC(=O)c1ccnc(C(=O)C=[N+]=[N-])c1,-6.5%
6,COc1cc(C(=O)NCCc2nc3ccccc3n2C)cc(OC)c1OC,4.1%
7,Cc1ccc([N+](=O)[O-])cc1NC(=S)NC(=O)CC(C)(C)C,2.05%
8,O=C(Nc1ccc(Cl)cc1C(=O)Nc1ccccn1)c1ccco1,-3.56%
9,CC(C)OC(=O)c1ccc(NC(=O)c2cccc(-n3cnnn3)c2)cc1,9.85%
10,O=C(O)c1cccc(N/N=C/c2cccc3ccccc23)c1,8.39%
11,CCN(CC)CCOC(=O)C1(c2ccc(OC)c(OC)c2)CCCC1.Cl,1.73%
12,COc1ccc2[nH]cc(C(=O)CN3CCN(C(=O)c4ccco4)CC3)c2c1,11.4%
13,Oc1ccc(-c2nccc(-c3ccc(Cl)cc3Cl)n2)cc1,11.8%
14,CC(C)c1c(C(=O)N/N=C/c2c[nH]c3ccccc23)nnn1-c1nonc1N,3.36%
15,O=S(=O)(c1cccc(NC(=S)NCc2ccco2)c1)N1CCOCC1,7.48%
16,O=C(CN(Cc1ccco1)C(=O)CNS(=O)(=O)c1ccc(Cl)cc1)NC1CCCCC1,5.5%
17,Cc1ccc(-n2ncc3c2CC(C)(C)CC3NC(=O)c2ccc[n+]([O-])c2)cc1 (stereo not shown),7.22%
18,COc1ccc(/C=C/C(=O)NCC2COc3ccccc3O2)c(OC)c1 (stereo not shown),-6.61%
19,Cc1ccc(-n2c(O)c(C=Nc3ccccc3N)c(=O)[nH]c2=O)cc1C,-1.34%
20,Cc1onc(-c2ccccc2)c1C(=O)N/N=C(\N)COc1ccc(Cl)cc1,-0.362%
21,CC(=O)Nc1cccc(NC(=O)CSc2ncc(-c3ccccc3)[nH]2)c1,6.01%
22,Cn1c(SCC(=O)NCCN2C(=O)CSC2=O)nnc1-c1ccccc1,15.1%
23,Cc1cc(C)cc(NC(=O)C(=O)NCC2CCCN2S(=O)(=O)c2cccs2)c1 (stereo not shown),5.71%
24,O=C(OCN1C(=O)c2ccccc2C1=O)c1cccc(S(=O)(=O)N2CCOCC2)c1,12.7%
25,COc1ccc(N(C)S(=O)(=O)c2cccc(C(=O)NC3CCCC3)c2)cc1,4.43%
26,COc1cccc(CCNC(=O)c2cccc(NC(=O)C3=C(C)OCCS3)c2)c1,6%
27,CCC/C(O)=C1\C(=O)CCCC1=NCCc1ccc(OCC)c(OCC)c1,3.78%
28,CC1C(=O)C(C)C(c2cc(Cl)ccc2O)NC1c1cc(Cl)ccc1O (stereo not shown),12%

row,SMILES,"hERG current change (%, negative = inhibition) at 1uM"
1,COc1ccc(S(=O)(=O)Cc2ccc(C(=O)N3CCN(c4ccc(Cl)cc4)CC3)o2)cc1,-17.3%
2,O=c1cc(-c2cccc(F)c2)[nH]c2ccccc12,9.83%
3,Cc1ccc2nc(-c3cccc(NC(=O)c4ccco4)c3)[nH]c2c1,3.16%
4,COc1ccc(Cl)cc1N(C(=O)c1ccco1)C(C(=O)NC1CCCC1)c1ccco1 (stereo not shown),9.81%
5,O=C(CSc1nnc(Cc2cccs2)n1-c1ccccc1)Nc1ccc2c(c1)OCCO2,5.05%
6,O=c1nc2ccccc2c2n1CC(CN1CCN(c3cccc(Cl)c3)CC1)N2 (stereo not shown),-38.9%
7,CCOC(=O)N(Cc1ccccc1)Cc1ccc(C(=O)N[C@@H](Cc2ccccc2)C(=O)O)cc1,12.8%
8,O=C(CSc1nnc(-c2cccs2)n1-c1ccccc1)N1CCCC1,-4%
9,CC(OC(=O)CCC1CCCCC1)C(=O)Nc1ccc(S(N)(=O)=O)cc1 (stereo not shown),9.83%
10,CC(=O)Nc1ccc(C2CC(c3ccc(Cl)cc3)=NN2c2ccccc2)cc1 (stereo not shown),0.669%
11,CC(=O)/C(=C/N(C)C)Sc1ccc(C)cc1,12.7%
12,O=C(Nc1ccc2c(c1)OCCO2)C1CCN(S(=O)(=O)c2cccs2)CC1,-9.01%
13,O=C(NCc1ccccn1)[C@@H]1C[C@H]1[C@@H](NP(=O)(c1ccccc1)c1ccccc1)c1ccccc1,8.94%
14,NC(=O)C1CCN(C(=O)c2cccc(S(=O)(=O)N3CCc4ccccc4C3)c2)CC1,8.76%
15,O=C(c1ccncc1)c1ccc([N+](=O)[O-])cc1,12.9%
16,C=CCSc1nnc(CNS(=O)(=O)c2ccc(C)cc2)n1C,5.39%
17,CCOC(=O)C1=C(C)N=C2SC=C(C)N2C1c1ccc(OC)cc1.Cl (stereo not shown),0.846%
18,CC1=C(C)C(=O)N(c2ccc(C(=O)O)cc2)C1=O,5.87%
19,C=CCn1c(SCc2csc(C)n2)nc2sc3c(c2c1=O)CCC(C)C3 (stereo not shown),18.8%
20,CC1(C)NC(=O)N(CC(O)Cn2nnc3ccccc32)C1=O.Cl (stereo not shown),5.34%
21,O=c1c(Cl)c(Cl)cnn1Cc1ccccc1Cl,6.3%
22,CC1CN(/C=C/C(=O)C(F)(F)F)CC(C)O1 (stereo not shown),12.9%
23,COCCCNC(=S)NNC(=O)c1ccc2c(c1)OCO2,-0.487%
24,CCOc1ccc(NC(=O)CSc2ncnc3c2sc2ccccc23)cc1,9.47%
25,Cc1nc(SCc2ccc(F)cc2)n[nH]1,14.5%
26,CCOc1ccccc1C(=O)Nc1nnc(C(C)C)s1,8.15%
27,C[C@H](NC(=O)C1CC(=O)N(c2ccc3c(c2)OCCO3)C1)C(=O)N1CCC(C(=O)O)CC1 (stereo partly shown),15.3%
